# Measurements as given in the supplement of paper PMC3334620.
# In all, about 33,000 sequences were measured (“E-score (-0.5 to 0.5)”: median about -0.011, highest 2% from about 0.28 on). This is one part of the list.
# Biological target: T1, Gcr1 (UniProt P07261)
# T1 sequence: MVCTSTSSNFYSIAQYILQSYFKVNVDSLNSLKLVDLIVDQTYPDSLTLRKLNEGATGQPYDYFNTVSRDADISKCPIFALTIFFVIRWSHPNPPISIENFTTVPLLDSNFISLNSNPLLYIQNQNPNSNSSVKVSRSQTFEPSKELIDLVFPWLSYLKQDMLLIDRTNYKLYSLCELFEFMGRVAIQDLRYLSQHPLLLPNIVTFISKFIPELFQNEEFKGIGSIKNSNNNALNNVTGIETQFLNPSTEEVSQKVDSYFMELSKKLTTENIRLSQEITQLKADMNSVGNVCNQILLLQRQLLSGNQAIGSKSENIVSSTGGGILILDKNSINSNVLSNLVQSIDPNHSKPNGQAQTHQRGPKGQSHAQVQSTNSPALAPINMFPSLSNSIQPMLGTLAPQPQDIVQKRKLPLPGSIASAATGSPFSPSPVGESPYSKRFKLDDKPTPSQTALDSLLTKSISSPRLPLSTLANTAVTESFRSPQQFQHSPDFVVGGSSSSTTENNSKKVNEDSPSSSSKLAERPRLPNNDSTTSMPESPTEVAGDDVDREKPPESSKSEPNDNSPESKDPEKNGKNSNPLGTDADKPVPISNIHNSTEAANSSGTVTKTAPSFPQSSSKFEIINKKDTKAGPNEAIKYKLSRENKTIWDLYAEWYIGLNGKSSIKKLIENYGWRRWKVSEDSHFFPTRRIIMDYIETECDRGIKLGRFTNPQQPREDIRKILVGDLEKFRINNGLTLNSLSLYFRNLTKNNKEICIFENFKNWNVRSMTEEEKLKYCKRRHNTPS
# Test: PBM E-score (8-mer binding enrichment) (E-score (-0.5 to 0.5)); higher = stronger / more preferred TF binding; most listed sequences are background and not binding sites
# Conditions: protein concentration: 100 nM; construct: GST-full length
# Method in brief: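 Universal all-10-mer Agilent arrays, double-stranded by primer extension on fresh or once-stripped slides, were probed with about 100-200 nM GST-tagged yeast transcription factors made by PURExpress. Fluorescent anti-GST detected bound protein, and masliner normalised the scans. E-scores from the Universal PBM Analysis Suite were given to each ungapped eight-base word pooled with its reverse complement.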
row,Sequence,PBM E-score
1,ACCCATAT,0.168
2,GTTTACGA,-0.0324
3,AACGATGA,0.0336
4,CAGGCGCG,-0.0119
5,CCGCTCCG,0.0276
6,ACTCGGAG,-0.0633
7,TACTATAA,0.123
8,CAGCAACC,0.287
9,TGTATAAA,-0.038
10,AAACCCTC,-0.0982
11,ACAGAACC,-0.0272
12,ACCTGATC,-0.248
13,TATCAAGA,-0.0423
14,AACGCTTG,-0.0993
15,AGGCATGA,-0.196
16,TCGAAAAA,0.126
17,ACTCCTCC,-0.145
18,AATGCTAT,0.0311
19,GGGCTAGA,-0.19
20,TACTTCGA,-0.0369
21,ACGTAAAC,-0.163
22,AAACCGTC,-0.286
23,AACAGCGC,-0.0848
24,GGTTCCAA,0.391
25,ACAACTAG,0.0278

row,Sequence,PBM E-score
1,TCTCCTAA,0.184
2,AAGCCTCA,0.0383
3,GGGTCTCA,-0.126
4,GTCGGCAA,0.0614
5,CCTGTTGC,0.0154
6,CTAATTGC,0.0145
7,CAGCGCCC,0.258
8,CAAATGCC,0.00666
9,CCGAGCGA,0.0373
10,GGGATAAC,0.0951
11,AAGACCCG,-0.0294
12,AATAGGCT,-0.00584
13,ACTTTATC,0.0991
14,GGGCCTCA,-0.041
15,GGAGCTTA,0.116
16,GAACTCCC,0.0644
17,GACCCCGA,0.0401
18,GGGTGGAC,-0.0944
19,CGATTTGA,-0.115
20,ACCGACTA,-0.158
21,AGCTGCAA,-0.0289
22,AAATCAGT,0.0327
23,ATTGGAGC,0.127
24,ATAACCAC,-0.0605
25,GTCACGAC,0.101

row,Sequence,PBM E-score
1,CCCAACAG,0.00411
2,GGTTCCCA,0.327
3,GGAATGAC,-0.105
4,CGCCGTTA,0.111
5,AAGTCACA,0.156
6,ACGTTAGA,0.109
7,CAGACGAC,-0.216
8,CAAACGCC,-0.2
9,AGTACCTC,-0.178
10,GTTTAACA,-0.17
11,GTGCCTTA,0.0187
12,CAAGTTGC,0.154
13,CCTCCACA,0.0108
14,AGTGATAC,0.0563
15,ATGTCTAA,-0.0649
16,GAACAGGA,0.127
17,GATACGAC,0.0658
18,GGCTTCCC,0.433
19,AGGTCGAT,-0.186
20,GACACCCA,0.0834
21,GGGCCAGA,0.0769
22,AAGAATCT,0.251
23,ACGTTCAT,-0.0953
24,GAACCAAC,0.00451
25,ATCCGCCA,-0.0303

row,Sequence,PBM E-score
1,GATATCGA,-0.00142
2,ACTCTTAG,0.166
3,GATCTCCA,0.0206
4,AGCACTAT,-0.0246
5,CGATCCAA,0.0146
6,ATCGAATG,0.0142
7,CTATGTAA,0.017
8,AGTGGCTG,0.312
9,AGGCCTGA,-0.0996
10,CACACTTA,-0.298
11,GAGGAGTA,-0.0619
12,GCAACGTA,0.14
13,AGTTAGAA,0.0734
14,CCGGTGTA,-0.0896
15,CCTAAGTA,0.114
16,AACGGCCT,-0.21
17,GGTGAACC,-0.161
18,CCCCGATA,-0.0488
19,CTCGTGGC,0.0439
20,AGTCTATC,-0.228
21,CCCTTAAG,-0.156
22,ATCCGATC,0.0296
23,TATATTGA,0.038
24,ACAACATC,0.0147
25,GCTTATCA,-0.0188

row,Sequence,PBM E-score
1,AATAACGC,-0.126
2,CTAAAAGA,-0.00143
3,GCTGAGTA,-0.192
4,ATTAATGG,0.161
5,ATATACCA,-0.132
6,CCAACTGG,0.0404
7,ATTAACTA,0.0224
8,ATACCGAC,0.0005
9,ACTCGTAC,-0.136
10,GGCTAACA,-0.19
11,AACTAGTT,0.0246
12,GTTCTCCA,-0.137
13,CGACCAAA,-0.129
14,CGTATGGA,0.116
15,AAATATAC,0.0716
16,GGATCATA,0.00563
17,TAGGTGGA,0.0169
18,CCATATAG,0.182
19,ATGCCTCG,-0.138
20,ACCGGGCA,0.0497
21,AAAGCTGC,-0.123
22,GGAGTGCC,0.0413
23,AGAGAGGG,-0.124
24,CATGCAGC,-0.18
25,AACGGTGG,-0.107

row,Sequence,PBM E-score
1,CATAAGAG,-0.025
2,AGAAGCTC,0.273
3,AACCGATG,-0.0829
4,GCCCGACA,0.0396
5,ACGATGAC,-0.0116
6,CGCGTCCG,0.0649
7,GTCAATCA,-0.226
8,AATGAGCC,-0.123
9,AAATGTCT,-0.058
10,ATCTTCCC,-0.0481
11,CCAAGATC,0.201
12,CGCTCGTC,-0.218
13,ACTGCACG,-0.258
14,TCGAGGAA,-0.0383
15,AACACTTG,-0.0906
16,GCCTACAA,-0.132
17,CCCCGAGA,0.0712
18,CGGAGTTA,-0.0496
19,GTTCTAAA,0.0776
20,CGCTCCAA,-0.0355
21,GATGATTA,-0.0692
22,CGTCCGCA,-0.162
23,ACGTTTCC,0.0116
24,ACTAGTAC,0.0609
25,CGTTCTAG,0.0647

row,Sequence,PBM E-score
1,CTAGACAG,-0.0841
2,ACTCCCAA,0.056
3,CTCGAAAG,-0.0701
4,GATCTTCA,-0.101
5,GCCTTTTA,-0.0056
6,ACTAAAAA,0.0363
7,AATTAAGA,0.125
8,GAGACCAA,0.0139
9,CTACAGCA,0.0064
10,CAATGACA,-0.0519
11,GTGTGCAA,-0.105
12,ACGATGAG,-0.24
13,GCATTCAA,0.0558
14,GCTGTTGA,-0.111
15,CCCTAATA,0.24
16,CGATCACA,-0.0285
17,GAGACATA,0.0764
18,CAAACTGA,0.105
19,AATGGTAA,-0.104
20,GAAATAAA,0.206
21,CGCCTGAG,-0.0508
22,CGACCGCG,-0.115
